Data published in PMC4336329 (PLoS ONE, 2015).
In all, about 310,000 compounds went through this assay and about 2,200 (0.71%) showed an effect of 50% or more. Effects have a minus sign here. This is one part of the list.

What follows are compounds tested against human ether-à-go-go-related gene (hERG) potassium channel (human, UniProt Q12809) (assay: primary screen, population patch clamp on CHO cells stably expressing hERG).
Chain of human ether-à-go-go-related gene (hERG) potassium channel (Q12809 whole entry, looked up): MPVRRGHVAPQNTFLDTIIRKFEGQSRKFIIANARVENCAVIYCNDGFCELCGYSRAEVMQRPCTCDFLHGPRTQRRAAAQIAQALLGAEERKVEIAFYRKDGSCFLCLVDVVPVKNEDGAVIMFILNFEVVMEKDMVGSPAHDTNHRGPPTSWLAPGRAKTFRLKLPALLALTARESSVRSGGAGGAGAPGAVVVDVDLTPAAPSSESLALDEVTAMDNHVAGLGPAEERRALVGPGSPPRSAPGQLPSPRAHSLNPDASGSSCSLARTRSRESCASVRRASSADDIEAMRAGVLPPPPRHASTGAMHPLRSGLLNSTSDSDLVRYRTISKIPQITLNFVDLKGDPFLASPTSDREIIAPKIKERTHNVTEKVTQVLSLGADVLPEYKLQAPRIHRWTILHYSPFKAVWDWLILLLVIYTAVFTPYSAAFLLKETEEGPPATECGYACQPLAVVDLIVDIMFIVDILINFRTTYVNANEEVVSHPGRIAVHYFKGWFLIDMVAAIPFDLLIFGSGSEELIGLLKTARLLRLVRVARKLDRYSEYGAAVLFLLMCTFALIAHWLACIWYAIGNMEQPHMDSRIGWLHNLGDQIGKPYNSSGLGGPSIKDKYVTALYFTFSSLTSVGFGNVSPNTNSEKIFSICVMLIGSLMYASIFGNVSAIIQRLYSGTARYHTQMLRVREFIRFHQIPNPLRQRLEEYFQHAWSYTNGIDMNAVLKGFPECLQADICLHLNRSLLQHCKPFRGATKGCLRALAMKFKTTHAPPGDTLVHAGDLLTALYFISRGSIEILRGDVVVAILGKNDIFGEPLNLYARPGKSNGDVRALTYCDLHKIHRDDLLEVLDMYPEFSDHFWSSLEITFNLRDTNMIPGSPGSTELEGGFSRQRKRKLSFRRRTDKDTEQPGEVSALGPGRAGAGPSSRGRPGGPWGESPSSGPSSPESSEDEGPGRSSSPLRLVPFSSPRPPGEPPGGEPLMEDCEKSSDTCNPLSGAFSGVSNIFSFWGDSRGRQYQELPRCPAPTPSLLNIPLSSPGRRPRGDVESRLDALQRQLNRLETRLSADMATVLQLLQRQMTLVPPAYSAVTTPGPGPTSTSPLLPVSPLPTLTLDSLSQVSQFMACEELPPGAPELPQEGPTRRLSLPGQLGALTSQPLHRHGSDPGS

SMILES	hERG current change (%, negative = inhibition) at 1uM [%]
COCCNC(=O)N1[C@H]2CC[C@@H]1C(C(=O)OC)=C(c1ccc(OC)c(OC)c1)C2	14.7
O=C(CCc1c[nH]c2ccccc12)NCc1ccncc1	11.8
COc1ccc2c3c(c(=O)oc2c1OCC(=O)O)CCCC3	23.8
C(=C\c1ccccc1)/C=N/Nc1nc2ccccc2[nH]1	-5.22
COC(=O)[C@@H]1C[C@@]2(O)[C@H](O)[C@H](O)[C@H](O)C[C@H]2N1C/C=C/c1ccccc1	9.96
COCCNc1nc(NCc2ccccc2)c2cnn(C)c2n1	13.4
CCOCCn1c(SCC(=O)OCc2ccccc2)nc2c1c(=O)[nH]c(=O)n2C	-10.8
O=S(=O)(c1ccc(Cl)nc1)N1CCCCC1	8.5
Nc1c(C(=O)NC2CCCC2)sc2nc(-c3cccs3)ccc12	17.6
CCN(C(=O)CCN1C(=O)c2ccccc2S1(=O)=O)c1ccccc1	-4.86
CCOc1ccc(CSC2=NCCN2)cc1[N+](=O)[O-].Cl	-71
COc1ccc(C2=NS(=O)(=O)N(C)C(C(=O)N3CCOCC3)=C2)cc1	-7.33
COc1cc(/C=C2\C(=O)N(c3ccccc3)N=C2C)ccc1Oc1ccc([N+](=O)[O-])cc1[N+](=O)[O-]	23.8
NS(=O)(=O)c1ccc(N2CCCC2=O)c([N+](=O)[O-])c1	9.69
Cc1nc(Cl)sc1C(=O)NC(C)c1ccc(Cl)cc1 (stereo not shown)	4.03
O=C1c2cccc3cccc(c23)C(=O)N1c1cccc(O)c1	8.09
CC(=O)c1c(C)[nH]c(C(=O)OCc2nnc(-c3ccccc3)o2)c1C	15.8
Cc1nc(C(=O)Nc2ccc(Cl)cc2Cl)nn1-c1cc(OC(C)C)c(Cl)cc1Cl	6.96
Cn1cc(Br)c(NS(=O)(=O)c2ccc(Cl)s2)n1	6.77
Cc1ccc(CNC(=O)c2ccc3c(c2)S(=O)(=O)c2ccccc2C3=O)o1	-1.73
CCOc1ccccc1Nc1nnc(Cc2ccccc2Cl)c(=O)[nH]1	-3.04
Cc1occc1-c1nnc(-c2cc([N+](=O)[O-])cc([N+](=O)[O-])c2)o1	6.64
CCCCCc1nnc(NS(C)(=O)=O)s1	6.56
Cc1ccc(C(=O)N/C(=C/c2ccc(-c3cc(C(F)(F)F)ccc3Cl)o2)C(=O)NCc2cccnc2)cc1	9.93
CN(C)/C=C/C(=O)c1cnc(-c2cccc(Cl)c2)s1	8.48
CCOC(=O)c1cnc(-n2nc(C)cc2C)nc1NCc1ccc2c(c1)OCO2	5.48
C[C@H]1CCCC(=O)CCC/C=C/c2cc(O)cc(O)c2C(=O)O1	20.6
Cc1ccc(/C=C2\C(=O)NC(=S)N(c3ccccc3F)C2=O)s1	8.19

SMILES	hERG current change (%, negative = inhibition) at 1uM [%]
COc1ccc(CCN=C(N)NS(=O)(=O)c2cc(F)ccc2OC)cc1	7.24
CC(C)NC(=S)N1CCC(Cc2ccccc2)CC1	9.4
COc1ccc(CN2CCCCC2C(=O)Nc2ccc(OC)c(OCC(C)C)c2)cc1OC (stereo not shown)	8.6
CCN(CC(=O)Nc1ccc2c(c1)OCCO2)C(=O)CN1C(=O)NC(C)(c2ccc(C)cc2)C1=O (stereo not shown)	6.05
COC(=O)Cn1c(=NC(=O)c2cc(-c3cccs3)nc3ccccc23)sc2cc(S(N)(=O)=O)ccc21	8.29
O=C(N/N=C\c1ccc(Br)cc1)c1ccc(Cn2cccn2)o1	2.56
CC(=O)c1ccc(S(=O)(=O)N2CCN(c3nc(-c4cccnc4)nc4ccccc34)CC2)cc1	1.27
O=C(Cn1nnc2c(cnn2-c2ccccc2)c1=O)N1CCN(c2ccccc2F)CC1	14
O=C(NC1(C(F)(F)F)N=C2SCCN2C1=O)c1cccnc1 (stereo not shown)	13.3
Cc1ccc(C(=O)NCCN2CCNC2=O)cc1	12.1
CCOc1ccc(C(=O)NC(=S)Nc2cccnc2)cc1	5.31
Cc1ccccc1CN1CCNC(=O)C1CC(=O)NC1CCCCCCC1 (stereo not shown)	7.5
CC12c3ccccc3C(c3ccccc31)C1C(=O)N(Cc3cccnc3)C(=O)[C@H]12 (stereo partly shown)	7.4
Cc1cccc(NC(=S)Nc2ccc3cn[nH]c3c2)c1	11.4
CNC(=S)N1C2CCC1CC(NC(=O)NC13CC4CC(CC(C4)C1)C3)C2 (stereo not shown)	13.5
O=C(Nc1nc(-c2cccnc2)cs1)c1ccc([N+](=O)[O-])cc1	8.49
CN(C)c1ccc(C(=O)OCC(=O)N2CCOCC2)cc1	2.34
COc1ccccc1Oc1ncnc2c1cnn2-c1ccccc1	8.14
O=C(N/N=C1\CCCc2ccccc21)C(O)c1ccccc1 (stereo not shown)	-4.16
Cc1ccc(CNC(=O)C(OC(=O)c2cccs2)C(C)C)cc1 (stereo not shown)	15.7
CCOc1cc(Br)c(/C=C2/C(=O)N(C)C(=S)N2CC(=O)OC)cc1OC	13.7
CC(=O)c1c(C)[nH]c(C(=O)NCC2CCCCC2)c1C	13.5
COc1cccc(C2=CC(=O)C[C@H](c3ccc(OC)c(OC)c3)C2)c1	1.89
COc1cccc(OC)c1OCC(O)CN1CCN(c2ccccc2F)CC1.Cl (stereo not shown)	7.45
COc1cc2c(cc1OC)CN(C(=O)CSc1nc3[nH]ncc3c(=O)n1-c1ccccc1)CC2	4.05
CN(Cc1c(C(=O)N/N=C/c2cccc(O)c2)nnn1-c1nonc1N)c1ccccc1	12.6
COc1ccc2c(c1)c1ncn(Cc3ccccn3)c(=O)c1n2C	14.2
